Data published in PubChem BioAssay (NCI).
Where “and” joins values, the source holds several entries; their conditions need not be identical. Equal values may be shown once.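 How tested: cells in 96-well plates exposed to compound for 48 hours at five concentrations. GI50 marks 50% less growth. TGI marks complete inhibition of growth.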

Tested on: NCI-H322M lung
Assay: growth of human tumour cells (NCI), 48 h

Row | SMILES | TGI | GI50
1 | CCOC(CN(C)C(=O)Nc1ccc(Cl)c(Cl)c1)OCC | > 10 µM | –
2 | COc1ccc(/C=C2\C[C@H]3[C@@H]4CC=C5C[C@@H](OC(C)=O)CC[C@]5(C)[C@H]4CC[C@]3(C)C2=O)cc1OC | > 100 µM | –
3 | Nc1nc(=S)c2ncn(C3OC(CO)C(O)C3O)c2[nH]1 (configuration not stated) | > 100 µM | 11.6 µM
4 | CCOC(=O)c1cc(-c2ccc([N+](=O)[O-])cc2)c([N+](=O)[O-])[nH]1 | > 10 µM | –
5 | O=C(CN1CCN(CCN2C(=O)c3cccc4cccc(c34)C2=O)CC1)Nc1ccc2ncsc2c1 | > 100 µM | > 100 µM
6 | CC(C)C(=O)Nc1ccc(-c2nc(-c3cccc(OCCN4CCOCC4)c3)c(-c3ccnc(Br)c3)[nH]2)cc1 | > 100 µM | 4.05 µM
7 | CC(C)n1nc(C#Cc2cccc(O)c2)c2c(N)ncnc21 | 9.61 µM and 5.48 µM | 1.64 µM and 1.55 µM
8 | COc1ccc(N=C(CS(=O)c2ccc(C)cc2)C(F)(F)F)cc1 (configuration not stated) | > 100 µM | –
9 | COC(=O)[C@H](C)NC(=O)C1(CNC(=O)[C@H](C)NC(=O)OC(C)(C)C)Cc2ccccc2-c2ccccc2C1 | > 88.2 µM | –
10 | CC(C)(C)C(O)CC(O)(C(F)(F)F)C(F)(F)F (configuration not stated) | > 100 µM | –
11 | Cc1ccc2nc(Sc3c([N+](=O)[O-])ncn3C)[nH]c2c1 | > 100 µM | –
12 | N#CC(C(=O)CCC(=O)Nc1ccc(Cl)cc1)c1ccc(Cl)cc1 (configuration not stated) | > 100 µM | –
13 | CC(C)NC(=O)OCc1nnn2c1CCC2 | > 100 µM | –
14 | Cc1cc(O[C@@H]2O[C@@H](C)[C@H](O)[C@@H](O)[C@H]2O)c2c3c(c(O[C@@H]4O[C@@H](C)[C@H](O)[C@@H](O)[C@H]4O)cc2c1)C(=O)c1c(O)cccc1C3=O | > 30 µM | > 30 µM
15 | COc1cccc(C2c3cc4c(cc3OC(NNC(N)=O)C2C)OCO4)c1O (configuration not stated) | > 57.7 µM | –
16 | N#Cc1sc2c(c1OC(=O)c1ccc(Cl)cc1)c(=O)n(-c1ccccc1)c(=S)n2-c1ccccc1 | > 100 µM | –
17 | CN1C(=O)/C(=C2\S/C(=N\c3nnc(-c4ccccc4)o3)NC2=O)c2ccccc21 | > 100 µM | 70.9 µM
18 | O=C(/C=C/c1ccco1)Nc1ncc(Cc2cccc(C(F)(F)F)c2)s1 | > 39.2 µM | 0.322 µM
19 | CN1CN(c2ccccc2)C2(CCN(C3Nc4ccccc4O3)CC2)C1=O (configuration not stated) | 85.9 µM | –
20 | Cc1cn(CC2=NC3CCCCC3N2)c(=O)[nH]c1=O (configuration not stated) | > 100 µM | –
21 | CN(C)c1ccc(/C=C(\C#N)c2ccccc2)cc1 | > 100 µM | 2.47 µM and 3.44 µM and 7.37 µM
22 | COc1ccc(N=N/C(=N\NC(=O)c2cc(Br)ccc2O)c2ccc(N(CCC#N)CCC#N)cc2OC)cc1 | > 150 µg/mL | 100 µg/mL
23 | O=C(/C=C\c1ccsc1)c1ccccc1 | 26.5 µM | –
24 | O=c1ccc2c(Cl)cccc2o1 | > 100 µM | –

Row | SMILES | TGI | GI50
25 | Cc1occc1C(=S)Nc1ccc(Cl)c(C(=O)OCC(C)C)c1 | 44.6 µM | –
26 | O=S(=O)(Nc1nccs1)c1ccc([As](=O)(O)O)cc1 | > 100 µM | –
27 | O=C(CN(Cc1ccccc1)Cc1ccccc1)N1CCc2c([nH]c3ccccc23)C1c1cccnc1 (configuration not stated) | > 100 µM | –
28 | Cc1cc2nc3c(=O)[nH]c(=O)nc-3n(CC(O)C(O)C(O)CO)c2cc1N (configuration not stated) | > 100 µM | –
29 | CC(C)(C)[Si](C)(C)OC1[C@@H](O[Si](C)(C)C(C)(C)C)[C@@H](CNC(=O)NC(=O)NC(=O)CCl)O[C@H]1n1cnc2c(NC(=O)Nc3ccccc3)ncnc21 (some centres not stated) | 43.9 µM | 13.7 µM
30 | Cc1ccc(S(=O)(=O)OCC(=O)Nc2ccc(C(=O)O)c(O)c2)cc1 | 183 µM | 66.5 µM
31 | Cc1n[nH]c(=O)n1Nc1ccccc1 | > 100 µM | –
32 | CCN(CC)CCCC(C)Nc1c2ccc(Cl)cc2nc2cc(Cl)ccc12 (configuration not stated) | 14.8 µM | –
33 | CC(=O)c1cc2c(s1)C(=O)c1ccsc1C2=O | 3.48 µM | –
34 | CCC[CH2][Sn]1([CH2]CCC)[O]C(=O)CN=C(C)c2ccccc2[O]1 | 3.64 µM | 1.98 µM
35 | CC(=O)OC1CC2C(C)(C)CCC[C@]2(C)C2=C1C(O)=C(C(C)C)C(=O)C2=O (some centres not stated) | 2.38 µM | 0.482 µM
36 | COc1cc(/C=N/N=C(\N)NO)ccc1O | > 100 µM | –
37 | Cc1ccc(N=NN(C)C(C)C(O)Cc2ccccc2)cc1 (configuration not stated) | > 100 µM | –
38 | O=C(CCc1ccc(O)c(O)c1)NCCc1ccccc1 | > 100 µM | –
39 | CCCCOC(=O)/C=C\C(=O)NC(N)=O | > 100 µM | 46.4 µM
40 | O=C(O)c1ccc(NCc2nc3ccccc3[nH]2)cc1 | > 100 µM | > 100 µM
41 | CC(C)COC(=O)c1ccc(N=Cc2ccc(C=Nc3ccc(C(=O)OCC(C)C)cc3)cc2)cc1 | > 100 µM | –
42 | N#CCCN(C1=NN(C(=O)CC(=O)Nc2ccc(Cl)cc2)C(c2ccccc2)C1)c1ccc(Cl)cc1 (configuration not stated) | > 100 µM | –
43 | O=c1oc2ccc3ccccc3c2cc1-c1nc(-c2ccc([N+](=O)[O-])cc2)n[nH]1 | > 100 µM | –
44 | CC(=O)c1cc(CC2Cc3cc4c(cc3C2=O)CCC4)cc2c1CCC2 (configuration not stated) | > 100 µM | –
45 | Fc1ccc(Oc2nc3ccccc3nc2-c2ccccc2)cc1 | > 100 µM | –
46 | NC(CP(=O)(O)O)C(=O)O (configuration not stated) | > 100 µM | –
47 | CCCCCCCCCC(=O)NCCc1c[nH]c2ccc(OC)cc12 | 38 µM | –
